Results: paper PMC10726135
This is one part of the list. At the low end of the ranking the order means little. Measured with an extract: partners may take part in the binding.

These sequences were tested against T1, HNF4alpha2 (COS-7 nuclear extract) (UniProt P41235) (assay: protein-binding microarray). Conditions: COS-7 nuclear extract on double-stranded Agilent 4x180k PBM; binding buffer, salt, pH and temperature not given; high values mean tight binding; double strand, one strand shown; sequences stand for … in …GCCTAGGGAGATTAGAGTATCGGTCGA.
T1 sequence: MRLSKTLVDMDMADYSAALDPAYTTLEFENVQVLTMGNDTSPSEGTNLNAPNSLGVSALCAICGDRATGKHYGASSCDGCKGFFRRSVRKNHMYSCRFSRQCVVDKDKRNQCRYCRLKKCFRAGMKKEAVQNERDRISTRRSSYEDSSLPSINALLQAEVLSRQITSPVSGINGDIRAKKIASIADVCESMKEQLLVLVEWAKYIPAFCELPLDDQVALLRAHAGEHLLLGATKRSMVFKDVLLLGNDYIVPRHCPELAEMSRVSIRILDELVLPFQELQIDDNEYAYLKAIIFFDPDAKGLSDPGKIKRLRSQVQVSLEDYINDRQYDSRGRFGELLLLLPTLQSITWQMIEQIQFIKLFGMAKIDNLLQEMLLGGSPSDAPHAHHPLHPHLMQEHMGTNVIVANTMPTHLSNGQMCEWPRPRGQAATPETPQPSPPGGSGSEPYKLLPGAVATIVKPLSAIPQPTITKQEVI

| Sequence | binding signal (log2 normalized intensity) |
| --- | --- |
| GGCCAAAGGTGAAGGAGAATATTAGATGAT | 0.585 |
| CACTTCTGAAAAAAATATTGAACAAAGATT | -0.491 |
| AATTGACAAGAGTGTGGCTCAGGTTGCTGC | -1.09 |
| CACCCTTCATAGAATTGAAGAGAGTTAGGG | -0.735 |
| CTGCTGTAATAAAGCCTTATCTGACCAGGG | 0.312 |
| GAAGAACTGATTCCAAAGGAAATCACATAG | -1.05 |
| TACACCTGGGGGCTTCCCAACTCCATTATC | -0.261 |
| AAATGCCATAGTCCAAAGTGGCAGTCGCCT | -0.116 |
| GGACACCGAGGTCCTGGGGCGATGCTTCCA | -1.12 |
| GATAGATATGTTGAAGTGACTAAATGAGAA | -0.48 |
| AATGGAAGAATCACAGTGTGGGGCAAATCT | -0.752 |
| AGAGCCACCCTCAAATCAGTGAAGGCCTCT | -1.16 |
| CTAACTGTGTTGAATTAGTACCTCAATGCT | -1.21 |
| GTGCTTGGACCTGCTCTGTTTTCTTTCGGT | 1.49 |
| CACAAAGAAGACCCTTTCTTATCTAAGCCA | -1.21 |
| TCTTCGCCTTGCTTATCTGGGAGGGGGAGG | -1.21 |
| CTCTAAGTAATCAATGGTTGCACTCTGGTG | 1.98 |
| TTGGAGACAGTGAGACGCAAGCATATCTCT | -0.964 |
| AGGAAACTTAAGTCTCAAAGGTCAGATGAC | 4.8 |
| CATCTGGACTTTACACAGACCTTTACCCAC | 3.33 |
| CAGAGACAATGTGAGCAGGTGTGTGGCATC | 0.817 |
| GCCTCTTAACAGATGAGGACATTTCAGCAA | -1.08 |
| GTGAGGGGTTATGGAGAGTGGAAGACTGCA | -1.17 |
| AGTAGCATTATCTCCTTGCTGTGCACTTCT | 1.62 |

| Sequence | binding signal (log2 normalized intensity) |
| --- | --- |
| TTGCCTTGTCCTTAGACAGTAACCCTTGAG | 1.69 |
| TTGCCCCTTCCAAAGTCCACCTCAACCTCC | 4.21 |
| CACCCGGTTGGCGCCAATACCTGCCGCGCG | -1.12 |
| TATAGACTGTGATAATGCTCTTAATACTGT | 0.287 |
| AAAAGGTATTTTTTGAATGACAGTGTCAGG | 1.45 |
| AGTTACAGTCACTCCCTATCAACCAAATCA | -1.09 |
| AGAAAACTCAACTTCTAACTTCCGGCTGGC | -1.11 |
| CGCTGGGAAGACAGTCTTGGGCACAAAGTA | -1.12 |
| GACATCTGGGAACAAGTTCTGCAGACTCCC | -1.08 |
| CCCTTCTTCTCCTCCCAACAGGTATGCTCC | 1.89 |
| ACTCCACAAGACCACAAGGTGGCGATAACT | -1.06 |
| CAGTTTTACAAAGTGGTTGTAGCAGTTCAC | 1.72 |
| TGTTTTGGAGTTAGCTGTCTTTCTGATAAG | 1.51 |
| CCTTGCTATGGAGTGGACTTTGGCTTATGC | 6.18 |
| CAACCAAGTCCATCTGTATTGCCTCCTTTG | 1.08 |
| GAGCTCAGTCACAGCAGTGGACTTTGACCT | 11.2 |
| GCAACAGAGGAGCATGGACTTCTGAGCTTG | -0.613 |
| ATACAGAATCAATGCCTGATTCCAAAGTCC | 5.95 |
| CAGGTTCAAATCTAAACCTAGCAGCCTGCC | -1.15 |
| CAGCAGAGGGAGCCGCTGTGTGGGAAGAGG | -0.914 |
| TGGTAAAGTCAATAATCTAGAAACCAGTGA | 0.24 |
| GTTTTCTGACGCAACAGAAAACTCAACTTC | -1.12 |
| AGAGTCCAAGATACCACTGATAAGGTTCCA | -0.744 |
| GTTTCCTTTGAACTCTGCATCCAGGCATCC | 0.259 |

| Sequence | binding signal (log2 normalized intensity) |
| --- | --- |
| CAAGAAAAGGTTCCTATGTAAACACAAGAT | -0.444 |
| GCTAGACTTGGACCAGCTTTTGGAAGGACT | -0.413 |
| CTTCGCTCTCTTCTGGTGATCAAACAAAAG | -0.414 |
| AAACAGAGGACAGTTGTGTTTGTTGACCAC | 1.99 |
| GGGTGAAAGGGACTCATCTCCAAACGAGAC | -0.986 |
| TTTGGTGTTACCTTTGGACTGTCCTTTGCT | 4.07 |
| GCTTTGAGACACCTGGCCAAGTACAGCCTG | -1.16 |
| GTCGGGAGGTAGGGGTGGCGGGTTGGAGGT | 0.142 |
| GCACAGCCAGAACTGAGCCCTGGTTTATCT | -0.985 |
| CTCTACCCCATGATGATAGCAAACACGATT | 1.44 |
| ACTGTCTCGGGGATTAGCGATCATGGGTGA | -1.18 |
| CTGGTTGAAGGGGAGGTTATCTTGGGGCTG | -0.241 |
| CCTGAGCCTGGACCTTGGAATGTCAAGATT | 2.48 |
| GATTAGGAGAGGGAGAGTGAGTGAGTGTGT | 1.95 |
| CCTGACCTGCCCTTTGTCCCTCCTGCTAGT | 3.3 |
| CATTTCCTTACAAACACAACATTGAAAGCG | -0.774 |
| CCCTCTCTTTCTGGAACCTACAGCTGGGGC | -0.00996 |
| GGCTTCTGGACTATGCCTTGAACTTTAAGG | 2.21 |
| ACCTTTTCCCTCCCTCCCAGTACAAAGTTC | 5.13 |
| TGACCGATAACCCTCCTGAACATAATTGCA | -0.656 |
| GTCTGTTGACCTTTGGCCAAGGGCAGTGTT | 6.71 |
| GTTTTCACTGCTGGGTTTCTTCCCTAATGG | 1.02 |
| GTTAAAGCACAGTGTCTTTGTTTGGAAAAG | 0.367 |
| CATCATTCCGTGACTGAGCTCGCGCCGGGC | -0.944 |

| Sequence | binding signal (log2 normalized intensity) |
| --- | --- |
| GATAGACTTATCTCAGCCTGGCTAAAACCC | -1.16 |
| TGCTTTCTGACTCTTTCTTTACAGGAAAAA | -0.97 |
| CTCTGCCCTTGGCCTACTTAGTCCAGGTTT | 1.32 |
| GGAGGGATCAAGCAGGTGACCTTCGATCAC | 5.71 |
| TGAAATAGCATGAATTTGGTACCTCCCCCC | 5.29 |
| ACTTGTTCCCTGTCGCTATCTTATCTGGGC | 1.62 |
| CCAAGCCTAGAAAAACAACTAAAGGAATGC | -1.18 |
| TGAGACTTTGGACTTTTGAACTAAGGCTGG | 4.72 |
| ACGAAAGGGACTTTGATCTTCTTACCCCTT | 4.9 |
| TACTAAAACAGGGAGCAGGCAGATTTGACC | 1.78 |
| AGGTCAAAGTTTGCCTTGACCTCTAAAGGG | 3.13 |
| AGGGCAGAGGTCAGCCCACAGGTCAATCCA | 2.16 |
| ACCTTTTAGATAGTAGCCCTTTGTATCTTT | 1.99 |
| TGAGGAATCTAAGATAAGCAGCATTCCACC | -0.938 |
| GATTTTAGAAGTCACTCCTTCCTCAAGACC | -1.17 |
| AAACCTCCCCCAAACCAAAGAGAAATGGTG | 3.22 |
| GAAAGTCATGCTGAAGTACAGATTCCTGTA | 0.797 |
| AAAATAGGGATTAAGCAGATGTTTCTGCAA | -0.66 |
| GAAGCAATCAAGCAATCATATATGCATTTG | -0.425 |
| TTTAAGGATCCAGACGGATTCCACGGGGGT | -0.149 |
| CAAAGGTCATGGCAACAGTTTTCTGGGATG | 2.82 |
